# Measured values as given in the supplement of paper PMC8728848.
# This is one part of the list.
# Columns and labels:
# Experiment in all cases: glycan array binding signal (z-score within array); higher = stronger binding
# Details in all cases: glycan notation: IUPAC condensed, linker removed
# [1] = target: Fuc(a1-2)[GalNAc(a1-3)]Gal(b1-3)GlcNAc(b1-3)GalNAc
# Procedure, shortened: (§1)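 Glycan array data were curated from 3228 arrays in the Consortium for Functional Glycomics database and kept only where the protein sequence was available. Glycan names were converted to IUPAC-condensed notation, and columns mapping to the same glycan were averaged. The binding signal is a within-array Z-score, averaged across arrays of the same protein sequence at different concentrations or buffers and across linkers. Negative Z-scores can be read as non-binding.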
# [2] = target: Fuc(a1-2)[GalNAc(a1-3)]Gal(b1-3)GlcNAc(b1-6)GalNAc
# Procedure, shortened: as §1
# [3] = target: Fuc(a1-2)[GalNAc(a1-3)]Gal(b1-4)Glc
# Procedure, shortened: as §1
# [4] = target: Fuc(a1-2)[GalNAc(a1-3)]Gal(b1-4)GlcNAc
# Procedure, shortened: as §1
# [5] = target: Fuc(a1-2)[GalNAc(a1-3)]Gal(b1-4)GlcNAc(b1-2)Man
# Procedure, shortened: as §1
# [6] = target: Fuc(a1-2)[GalNAc(a1-3)]Gal(b1-4)GlcNAc(b1-2)Man(a1-3)[Fuc(a1-2)[GalNAc(a1-3)]Gal(b1-4)GlcNAc(b1-2)Man(a1-6)]Man(b1-4)GlcNAc(b1-4)GlcNAc
# Procedure, shortened: as §1
# [7] = target: Fuc(a1-2)[GalNAc(a1-3)]Gal(b1-4)GlcNAc(b1-2)Man(a1-3)[Fuc(a1-2)[GalNAc(a1-3)]Gal(b1-4)GlcNAc(b1-2)Man(a1-6)]Man(b1-4)GlcNAc(b1-4)[Fuc(a1-6)]GlcNAc
# Procedure, shortened: as §1
# [8] = target: Fuc(a1-2)[GalNAc(a1-3)]Gal(b1-4)GlcNAc(b1-3)Gal(b1-4)GlcNAc
# Procedure, shortened: as §1
# [9] = target: Fuc(a1-2)[GalNAc(a1-3)]Gal(b1-4)GlcNAc(b1-3)Gal(b1-4)GlcNAc(b1-3)Gal(b1-4)GlcNAc
# Procedure, shortened: as §1
# [10] = target: Fuc(a1-2)[GalNAc(a1-3)]Gal(b1-4)GlcNAc(b1-3)GalNAc
# Procedure, shortened: as §1
# [11] = target: Fuc(a1-2)[GalNAc(a1-3)]Gal(b1-4)GlcNAc(b1-3)[Fuc(a1-2)[GalNAc(a1-3)]Gal(b1-4)GlcNAc(b1-6)]GalNAc
# Procedure, shortened: as §1
# [12] = target: Fuc(a1-2)[GalNAc(a1-3)]Gal(b1-4)GlcNAc(b1-6)GalNAc
# Procedure, shortened: as §1
# [13] = target: Fuc(a1-2)[GalNAc(a1-3)]Gal(b1-4)[Fuc(a1-3)]GlcNAc
# Procedure, shortened: as §1
# [14] = target: Fuc(a1-2)[GalNAc(a1-3)]Gal(b1-4)[Fuc(a1-3)]GlcNAc(b1-3)GalNAc
# Procedure, shortened: as §1
# [15] = target: Fuc(a1-2)[GalNAc(a1-4)]Gal(b1-4)GlcNAc
# Procedure, shortened: as §1
# [16] = target: Fuc(a1-2)[GalNAc(b1-3)]Gal
# Procedure, shortened: as §1
# Fuc(a1-3)GlcNAc = target: Fuc(a1-3)GlcNAc
# Procedure, shortened: as §1
# [17] = target: Fuc(a1-3)[Gal(b1-4)]Glc6S
# Procedure, shortened: as §1
# [18] = target: Fuc(a1-3)[Gal(b1-4)]GlcNAc
# Procedure, shortened: as §1
# [19] = target: Fuc(a1-3)[Gal(b1-4)]GlcNAc(b1-2)Man
# Procedure, shortened: as §1
# [20] = target: Fuc(a1-3)[Gal(b1-4)]GlcNAc(b1-2)Man(a1-3)[Fuc(a1-3)[Gal(b1-4)]GlcNAc(b1-2)Man(a1-6)]Man(b1-4)GlcNAc(b1-4)GlcNAc
# Procedure, shortened: as §1
# [21] = target: Fuc(a1-3)[Gal(b1-4)]GlcNAc(b1-2)Man(a1-3)[Fuc(a1-3)[Gal(b1-4)]GlcNAc(b1-2)Man(a1-6)]Man(b1-4)GlcNAc(b1-4)[Fuc(a1-6)]GlcNAc
# Procedure, shortened: as §1
# [22] = target: Fuc(a1-3)[Gal(b1-4)]GlcNAc(b1-3)Gal(b1-3)[Fuc(a1-4)]GlcNAc
# Procedure, shortened: as §1
# [23] = target: Fuc(a1-3)[Gal(b1-4)]GlcNAc(b1-3)Gal(b1-4)[Fuc(a1-3)]GlcNAc
# Procedure, shortened: as §1
# [24] = target: Fuc(a1-3)[Gal(b1-4)]GlcNAc(b1-3)Gal(b1-4)[Fuc(a1-3)]GlcNAc(b1-3)Gal(b1-4)[Fuc(a1-3)]GlcNAc
# Procedure, shortened: as §1
# [25] = target: Fuc(a1-3)[Gal(b1-4)]GlcNAc(b1-3)GalNAc
# Procedure, shortened: as §1
# [26] = target: Fuc(a1-3)[Gal(b1-4)]GlcNAc(b1-4)Gal(b1-4)[Fuc(a1-3)]GlcNAc
# Procedure, shortened: as §1
# [27] = target: Fuc(a1-3)[Gal(b1-4)]GlcNAc(b1-4)Gal(b1-4)[Fuc(a1-3)]GlcNAc(b1-4)Gal(b1-4)[Fuc(a1-3)]GlcNAc
# Procedure, shortened: as §1
# [28] = target: Fuc(a1-3)[Gal(b1-4)]GlcNAc(b1-6)GalNAc
# Procedure, shortened: as §1
# [29] = target: Fuc(a1-3)[Gal(b1-4)]GlcNAc(b1-6)[Gal(b1-3)GlcNAc(b1-3)]Gal(b1-4)Glc
# Procedure, shortened: as §1
# [30] = target: Fuc(a1-3)[Gal(b1-4)]GlcNAc6S
# Procedure, shortened: as §1
# [31] = target: Fuc(a1-3)[Gal3S(b1-4)]Glc
# Procedure, shortened: as §1
# [32] = target: Fuc(a1-3)[Gal3S(b1-4)]GlcNAc
# Procedure, shortened: as §1
# [33] = target: Fuc(a1-3)[Gal3S(b1-4)]GlcNAc6S
# Procedure, shortened: as §1
# [34] = target: Fuc(a1-3)[GalNAc(b1-4)]GlcNAc
# Procedure, shortened: as §1
# [35] = target: Fuc(a1-3)[GalNAc(b1-4)]GlcNAc6S
# Procedure, shortened: as §1
# Fuc(a1-4)GlcNAc = target: Fuc(a1-4)GlcNAc
# Procedure, shortened: as §1
binder,measurement,setting,value
AMA (Arum maculatun) (protein) MAKLLLLLLLPAIVGLAVPRSAAAVGSNYMLSGETLNTDGRLTNGELTLIMQVDCNLVLYHGGWQSNTANNGRDCKLTLTDFGELVIKSGTGSTVWSSGSKQSMKGNYAAVVHPEGRLVIYGPSVFKINPSGAGLNGLPLRNIPLTNNMLFSGQVLYGDGTLSARNHKLVMQGDCNMVLYGGKYGWQSNTHGNGKYCFAMLTHKGELVIRDDDFKSVWSSKSSSKQGDYVFILQDDSLAIIYGPAVFSTGSKKMISMVTN,glycan array binding signal (z-score),[1],-0.217
same,glycan array binding signal (z-score),[2],-0.216
same,glycan array binding signal (z-score),[3],-0.213
same,glycan array binding signal (z-score),[4],-0.08
same,glycan array binding signal (z-score),[5],-0.221
same,glycan array binding signal (z-score),[6],-0.207
same,glycan array binding signal (z-score),[7],-0.026
same,glycan array binding signal (z-score),[8],-0.219
same,glycan array binding signal (z-score),[9],-0.173
same,glycan array binding signal (z-score),[10],-0.212
same,glycan array binding signal (z-score),[11],-0.217
same,glycan array binding signal (z-score),[12],-0.222
same,glycan array binding signal (z-score),[13],-0.204
same,glycan array binding signal (z-score),[14],-0.204
same,glycan array binding signal (z-score),[15],-0.211
same,glycan array binding signal (z-score),[16],-0.214
same,glycan array binding signal (z-score),Fuc(a1-3)GlcNAc,-0.221
same,glycan array binding signal (z-score),[17],-0.206
same,glycan array binding signal (z-score),[18],-0.217
same,glycan array binding signal (z-score),[19],-0.213
same,glycan array binding signal (z-score),[20],0.429
same,glycan array binding signal (z-score),[21],-0.205
same,glycan array binding signal (z-score),[22],-0.198
same,glycan array binding signal (z-score),[23],-0.202
same,glycan array binding signal (z-score),[24],-0.211
same,glycan array binding signal (z-score),[25],-0.215
same,glycan array binding signal (z-score),[26],-0.223
same,glycan array binding signal (z-score),[27],-0.232
same,glycan array binding signal (z-score),[28],-0.184
same,glycan array binding signal (z-score),[29],-0.211
same,glycan array binding signal (z-score),[30],-0.201
same,glycan array binding signal (z-score),[31],-0.214
same,glycan array binding signal (z-score),[32],-0.226
same,glycan array binding signal (z-score),[33],-0.217
same,glycan array binding signal (z-score),[34],-0.156
same,glycan array binding signal (z-score),[35],-0.2
same,glycan array binding signal (z-score),Fuc(a1-4)GlcNAc,-0.222
